# Laboratory results reported in the supplement of paper PMC8728848.
# This is one part of the list.
# B1: CVN-E41G (protein)
# chain: MHHHHHHENLYFQSGNFSQACYNSAIQGSVLTSTCIRTNGGYNTSSIDLNSVIGNVDGSLKWQGSNFIETCRNTQLAGSSELAAECKTRAQQFVSTKINLDDHIAAIDGTLKYE
# Key:
# Experiment in all cases: glycan array binding signal (z-score within array); higher = stronger binding
# Details in all cases: glycan notation: IUPAC condensed, linker removed; mutation: E41G
# [1] = molecular target: Neu5Ac(a2-6)Gal(b1-4)GlcNAc(b1-3)Gal(b1-4)GlcNAc(b1-3)GalNAc
# Method in brief: (§1)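 From the Consortium for Functional Glycomics database, 3228 arrays were curated, keeping only those whose protein sequence was available. Binding is given as a within-array Z-score averaged across arrays sharing a protein sequence and across linkers. Negative Z-scores can be read as non-binding.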
# [2] = molecular target: Neu5Ac(a2-6)Gal(b1-4)GlcNAc(b1-3)Gal(b1-4)GlcNAc(b1-3)[Neu5Ac(a2-6)Gal(b1-4)GlcNAc(b1-3)Gal(b1-4)GlcNAc(b1-6)]GalNAc
# Method in brief: as §1
# [3] = molecular target: Neu5Ac(a2-6)Gal(b1-4)GlcNAc(b1-3)Gal(b1-4)GlcNAc(b1-6)[Gal(b1-3)]GalNAc
# Method in brief: as §1
# [4] = molecular target: Neu5Ac(a2-6)Gal(b1-4)GlcNAc(b1-3)Gal(b1-4)[Fuc(a1-3)]GlcNAc(b1-3)Gal(b1-4)[Fuc(a1-3)]GlcNAc
# Method in brief: as §1
# [5] = molecular target: Neu5Ac(a2-6)Gal(b1-4)GlcNAc(b1-3)GalNAc
# Method in brief: as §1
# [6] = molecular target: Neu5Ac(a2-6)Gal(b1-4)GlcNAc(b1-3)[Neu5Ac(a2-6)Gal(b1-4)GlcNAc(b1-6)]GalNAc
# Method in brief: as §1
# [7] = molecular target: Neu5Ac(a2-6)Gal(b1-4)GlcNAc(b1-6)GalNAc
# Method in brief: as §1
# [8] = molecular target: Neu5Ac(a2-6)Gal(b1-4)GlcNAc(b1-6)[Gal(b1-3)GlcNAc(b1-3)]Gal(b1-4)Glc
# Method in brief: as §1
# [9] = molecular target: Neu5Ac(a2-6)Gal(b1-4)GlcNAc(b1-6)[Gal(b1-3)]GalNAc
# Method in brief: as §1
# [10] = molecular target: Neu5Ac(a2-6)Gal(b1-4)GlcNAc6S
# Method in brief: as §1
# [11] = molecular target: Neu5Ac(a2-6)GalNAc
# Method in brief: as §1
# [12] = molecular target: Neu5Ac(a2-6)GalNAc(b1-4)GlcNAc
# Method in brief: as §1
# [13] = molecular target: Neu5Ac(a2-6)GalNAc(b1-4)GlcNAc6S
# Method in brief: as §1
# [14] = molecular target: Neu5Ac(a2-6)GlcNAc(b1-4)GlcNAc
# Method in brief: as §1
# [15] = molecular target: Neu5Ac(a2-6)GlcNAc(b1-4)GlcNAc(b1-4)GlcNAc
# Method in brief: as §1
# [16] = molecular target: Neu5Ac(a2-8)Neu5Ac
# Method in brief: as §1
# [17] = molecular target: Neu5Ac(a2-8)Neu5Ac(a2-3)Gal(b1-3)GalNAc(b1-4)[Neu5Ac(a2-3)]Gal(b1-4)Glc
# Method in brief: as §1
# [18] = molecular target: Neu5Ac(a2-8)Neu5Ac(a2-3)Gal(b1-3)GalNAc(b1-4)[Neu5Ac(a2-8)Neu5Ac(a2-3)]Gal(b1-4)Glc
# Method in brief: as §1
# [19] = molecular target: Neu5Ac(a2-8)Neu5Ac(a2-3)Gal(b1-4)Glc
# Method in brief: as §1
# [20] = molecular target: Neu5Ac(a2-8)Neu5Ac(a2-3)Gal(b1-4)GlcNAc
# Method in brief: as §1
# [21] = molecular target: Neu5Ac(a2-8)Neu5Ac(a2-3)[Gal(b1-3)GalNAc(b1-4)]Gal(b1-4)Glc
# Method in brief: as §1
# [22] = molecular target: Neu5Ac(a2-8)Neu5Ac(a2-3)[GalNAc(b1-4)]Gal(b1-4)Glc
# Method in brief: as §1
# [23] = molecular target: Neu5Ac(a2-8)Neu5Ac(a2-8)Neu5Ac
# Method in brief: as §1
# [24] = molecular target: Neu5Ac(a2-8)Neu5Ac(a2-8)Neu5Ac(a2-3)Gal(b1-4)Glc
# Method in brief: as §1
# [25] = molecular target: Neu5Ac(a2-8)Neu5Ac(a2-8)Neu5Ac(a2-3)[Gal(b1-3)GalNAc(b1-4)]Gal(b1-4)Glc
# Method in brief: as §1
# [26] = molecular target: Neu5Ac(a2-8)Neu5Ac(a2-8)Neu5Ac(a2-3)[GalNAc(b1-4)]Gal(b1-4)Glc
# Method in brief: as §1
# [27] = molecular target: Neu5Ac(a2-8)Neu5Ac(a2-8)Neu5Ac(a2-8)Neu5Ac(a2-3)[GalNAc(b1-4)]Gal(b1-4)Glc
# Method in brief: as §1
# [28] = molecular target: Neu5Ac(a2-8)Neu5Gc(a2-3)Gal(b1-4)GlcNAc
# Method in brief: as §1
# [29] = molecular target: Neu5Ac(b2-6)Gal(b1-4)GlcNAc
# Method in brief: as §1
# [30] = molecular target: Neu5Ac(b2-6)GalNAc
# Method in brief: as §1
# [31] = molecular target: Neu5Ac9Ac(a2-3)Gal(b1-3)GlcNAc
# Method in brief: as §1
# [32] = molecular target: Neu5Ac9Ac(a2-3)Gal(b1-4)GlcNAc
# Method in brief: as §1
# [33] = molecular target: Neu5Ac9Ac(a2-6)Gal(b1-4)GlcNAc
# Method in brief: as §1
# [34] = molecular target: Neu5Gc(a2-3)Gal(b1-3)GlcNAc
# Method in brief: as §1
# [35] = molecular target: Neu5Gc(a2-3)Gal(b1-3)[Fuc(a1-4)]GlcNAc
# Method in brief: as §1
# [36] = molecular target: Neu5Gc(a2-3)Gal(b1-4)Glc
# Method in brief: as §1
# [37] = molecular target: Neu5Gc(a2-3)Gal(b1-4)GlcNAc
# Method in brief: as §1
# [38] = molecular target: Neu5Gc(a2-3)Gal(b1-4)GlcNAc(b1-3)Gal(b1-4)GlcNAc(b1-2)Man(a1-3)[Neu5Gc(a2-3)Gal(b1-4)GlcNAc(b1-3)Gal(b1-4)GlcNAc(b1-2)Man(a1-6)]Man(b1-4)GlcNAc(b1-4)GlcNAc
# Method in brief: as §1
# [39] = molecular target: Neu5Gc(a2-3)Gal(b1-4)[Fuc(a1-3)]GlcNAc
# Method in brief: as §1
# [40] = molecular target: Neu5Gc(a2-6)Gal(b1-4)GlcNAc
# Method in brief: as §1
# [41] = molecular target: Neu5Gc(a2-6)GalNAc
# Method in brief: as §1
# [42] = molecular target: Neu5Gc(a2-8)Neu5Ac(a2-3)Gal(b1-4)GlcNAc
# Method in brief: as §1
# [43] = molecular target: Neu5Gc(a2-8)Neu5Gc(a2-3)Gal(b1-4)GlcNAc
# Method in brief: as §1
# [44] = molecular target: Neu5Gc(a2-8)Neu5Gc(a2-3)Gal(b1-4)GlcNAc(b1-3)Gal(b1-4)GlcNAc
# Method in brief: as §1
# [45] = molecular target: Neu5Gc(a2-8)Neu5Gc(a2-6)Gal(b1-4)GlcNAc
# Method in brief: as §1
# [46] = molecular target: Neu5Gc(b2-6)Gal(b1-4)GlcNAc
# Method in brief: as §1
binder,measurement,setting,value
B1,glycan array binding signal (z-score),[1],-0.148
same,glycan array binding signal (z-score),[2],-0.14
same,glycan array binding signal (z-score),[3],-0.149
same,glycan array binding signal (z-score),[4],-0.008
same,glycan array binding signal (z-score),[5],-0.016
same,glycan array binding signal (z-score),[6],-0.147
same,glycan array binding signal (z-score),[7],-0.126
same,glycan array binding signal (z-score),[8],-0.167
same,glycan array binding signal (z-score),[9],-0.158
same,glycan array binding signal (z-score),[10],-0.169
same,glycan array binding signal (z-score),[11],-0.155
same,glycan array binding signal (z-score),[12],-0.2
same,glycan array binding signal (z-score),[13],-0.127
same,glycan array binding signal (z-score),[14],-0.157
same,glycan array binding signal (z-score),[15],-0.115
same,glycan array binding signal (z-score),[16],-0.132
same,glycan array binding signal (z-score),[17],-0.157
same,glycan array binding signal (z-score),[18],-0.158
same,glycan array binding signal (z-score),[19],-0.181
same,glycan array binding signal (z-score),[20],-0.181
same,glycan array binding signal (z-score),[21],-0.153
same,glycan array binding signal (z-score),[22],-0.161
same,glycan array binding signal (z-score),[23],-0.158
same,glycan array binding signal (z-score),[24],-0.173
same,glycan array binding signal (z-score),[25],-0.003
same,glycan array binding signal (z-score),[26],-0.138
same,glycan array binding signal (z-score),[27],-0.152
same,glycan array binding signal (z-score),[28],-0.171
same,glycan array binding signal (z-score),[29],-0.174
same,glycan array binding signal (z-score),[30],-0.196
same,glycan array binding signal (z-score),[31],-0.182
same,glycan array binding signal (z-score),[32],-0.175
same,glycan array binding signal (z-score),[33],-0.152
same,glycan array binding signal (z-score),[34],-0.176
same,glycan array binding signal (z-score),[35],-0.145
same,glycan array binding signal (z-score),[36],-0.133
same,glycan array binding signal (z-score),[37],-0.171
same,glycan array binding signal (z-score),[38],-0.176
same,glycan array binding signal (z-score),[39],-0.169
same,glycan array binding signal (z-score),[40],-0.172
same,glycan array binding signal (z-score),[41],-0.133
same,glycan array binding signal (z-score),[42],-0.159
same,glycan array binding signal (z-score),[43],-0.178
same,glycan array binding signal (z-score),[44],-0.179
same,glycan array binding signal (z-score),[45],-0.166
same,glycan array binding signal (z-score),[46],-0.155
